Sequences with one replicate were seen in a single cluster, so their values are uncertain.
Each sequence was assayed on ATP (assay: switch fluorescence ratio, 500 uM ATP over buffer (Cy3 cluster intensity, sum of 5 cycles each) (fold (ratio)); higher = stronger signal-on switching upon ATP binding; sequences stand for … in TCGTCGGCAGCGTCAGATGTGTATAAGAGACAGTTTTTTTTTTTTTTTTTTTTTTTTT…TC). Conditions: aptamer strand: ATP DNA aptamer (quencher-CACCTGGGGGAGTATTGCGGAGGAAGG + anchor), 100 nM annealed; ATP concentration: 500 uM; one replicate.
Procedure, shortened: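 The quencher-labelled ATP aptamer, at 100 nM, was annealed to Cy3-labelled switching-strand clusters on a modified Illumina MiSeq flow-cell. The clusters were imaged in selection buffer, then after 15 min with 500 uM ATP at 22 °C, and this buffer/ATP cycle ran five times with NaOH stripping and re-annealing between runs. Per-cluster fluorescence ratios, summed target-cycle over summed buffer-cycle Cy3 intensity, were averaged per switch-domain sequence. Clusters outside 100-1000 RFU were excluded.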
CTTATACAGA was tested, and the switch fluorescence ratio was 1.06.
Work on CTTATACTTC yielded a switch fluorescence ratio of 1.04.
CTTATAGGTT gave a switch fluorescence ratio of 1.01.
CTTATAGTCT showed a switch fluorescence ratio of 0.973.
CTTATATAAC gave a switch fluorescence ratio of 1.
With CTTATATGCT the switch fluorescence ratio was 0.99.
Work on CTTATATTTA yielded a switch fluorescence ratio of 1.01.
Work on CTTATCTTAC yielded a switch fluorescence ratio of 1.11.
CTTATGAACG gave a switch fluorescence ratio of 1.01.
Work on CTTATTTAC yielded a switch fluorescence ratio of 1.04.
Work on CTTCAACGGG yielded a switch fluorescence ratio of 1.
CTTCAACTCT gave a switch fluorescence ratio of 1.24.
CTTCACCAGA gave a switch fluorescence ratio of 1.08.
CTTCACCAGC gave a switch fluorescence ratio of 1.23.
For CTTCAGCCGA, the switch fluorescence ratio was 1.12.
With CTTCAGGCTG the switch fluorescence ratio was 0.976.
CTTCAGGGAG gave a switch fluorescence ratio of 0.991.
With CTTCAGTTTG the switch fluorescence ratio was 1.04.
With CTTCATCAAG the switch fluorescence ratio was 1.09.
With CTTCATGTCC the switch fluorescence ratio was 0.915.
Sequence CTTCCTGGTT has a switch fluorescence ratio of 0.975.
For CTTCGCCCTG, the switch fluorescence ratio was 1.18.
CTTCGGACGA showed a switch fluorescence ratio of 1.08.
Work on CTTCGGCGG yielded a switch fluorescence ratio of 0.988.
In the case of CTTCGGGTTC, the switch fluorescence ratio is reported as 1.01.
Work on CTTCTAAATA yielded a switch fluorescence ratio of 1.09.
CTTCTAAGAG was tested, and the switch fluorescence ratio was 0.972.
CTTCTAGCGG gave a switch fluorescence ratio of 1.06.
With CTTCTCATAC the switch fluorescence ratio was 3.01.
Work on CTTCTCTGC yielded a switch fluorescence ratio of 1.23.
CTTGAAATAC was tested, and the switch fluorescence ratio was 1.09.
For CTTGAAGGCG, the switch fluorescence ratio was 0.95.
Sequence CTTGACACCT has a switch fluorescence ratio of 1.25.
CTTGAGCCAC was tested, and the switch fluorescence ratio was 1.17.
CTTGAGTAC showed a switch fluorescence ratio of 0.983.
With CTTGATCAGA the switch fluorescence ratio was 1.02.
Work on CTTGCAGCGA yielded a switch fluorescence ratio of 1.27.
CTTGCAGGCA was tested, and the switch fluorescence ratio was 1.03.
CTTGCCCGAT showed a switch fluorescence ratio of 1.02.
CTTGCCCTTT showed a switch fluorescence ratio of 0.981.
CTTGCGATTG gave a switch fluorescence ratio of 1.04.
With CTTGCTAATG the switch fluorescence ratio was 1.01.
CTTGCTTACA showed a switch fluorescence ratio of 0.983.
For CTTGCTTGGA, the switch fluorescence ratio was 1.02.
CTTGGAATGC showed a switch fluorescence ratio of 3.11.
With CTTGGACAAA the switch fluorescence ratio was 1.01.
With CTTGGACAGG the switch fluorescence ratio was 1.01.
Sequence CTTGGACGGC has a switch fluorescence ratio of 1.01.
In the case of CTTGGAGCTC, the switch fluorescence ratio is reported as 1.07.
Sequence CTTGGATCCC has a switch fluorescence ratio of 0.962.
CTTGGCAACC gave a switch fluorescence ratio of 0.996.
CTTGGCCTGC showed a switch fluorescence ratio of 0.982.
In the case of CTTGGCTTTG, the switch fluorescence ratio is reported as 0.997.
CTTGGGAGTC showed a switch fluorescence ratio of 0.991.
For CTTGGGCTAT, the switch fluorescence ratio was 0.975.
CTTGGGGGGC was tested, and the switch fluorescence ratio was 1.03.
CTTGGGTCGG was tested, and the switch fluorescence ratio was 0.968.
Work on CTTGGTACGT yielded a switch fluorescence ratio of 1.04.
CTTGGTATAA gave a switch fluorescence ratio of 0.984.
For CTTGGTCCGT, the switch fluorescence ratio was 1.07.
CTTGGTGAAG showed a switch fluorescence ratio of 0.979.
Work on CTTGGTTTTA yielded a switch fluorescence ratio of 1.28.
Sequence CTTGTAATCG has a switch fluorescence ratio of 0.964.
With CTTGTCCGAC the switch fluorescence ratio was 1.1.
For CTTGTCGCGG, the switch fluorescence ratio was 0.994.
In the case of CTTGTCTTA, the switch fluorescence ratio is reported as 0.965.
CTTGTGACC gave a switch fluorescence ratio of 0.964.
Work on CTTGTGTACT yielded a switch fluorescence ratio of 0.973.
Work on CTTGTTTCTG yielded a switch fluorescence ratio of 0.96.
CTTGTTTGAT was tested, and the switch fluorescence ratio was 1.
With CTTTACCGGA the switch fluorescence ratio was 0.955.
For CTTTAGAGAG, the switch fluorescence ratio was 0.993.
In the case of CTTTAGGAGC, the switch fluorescence ratio is reported as 1.03.
CTTTAGTACT gave a switch fluorescence ratio of 1.01.
Work on CTTTATACTT yielded a switch fluorescence ratio of 0.985.
For CTTTCACTCG, the switch fluorescence ratio was 1.02.
Work on CTTTCTGATT yielded a switch fluorescence ratio of 0.944.
CTTTGAAGCC gave a switch fluorescence ratio of 1.36.
CTTTGAATCT was tested, and the switch fluorescence ratio was 1.02.
CTTTGACTTT was tested, and the switch fluorescence ratio was 1.02.
In the case of CTTTGATTAA, the switch fluorescence ratio is reported as 1.04.
CTTTGGCGC showed a switch fluorescence ratio of 1.03.
With CTTTGGCGGT the switch fluorescence ratio was 0.979.
For CTTTGGGAAT, the switch fluorescence ratio was 0.984.
With CTTTGGGTAT the switch fluorescence ratio was 1.03.
CTTTGGTTCT gave a switch fluorescence ratio of 1.01.
CTTTGTAAAT gave a switch fluorescence ratio of 0.992.
Work on CTTTGTTGGC yielded a switch fluorescence ratio of 1.
CTTTTAGAAT gave a switch fluorescence ratio of 1.03.
In the case of CTTTTCCGGT, the switch fluorescence ratio is reported as 0.998.
For CTTTTGCCGG, the switch fluorescence ratio was 0.987.
CTTTTGGCGC gave a switch fluorescence ratio of 1.04.
In the case of CTTTTTAGTT, the switch fluorescence ratio is reported as 0.961.
For CTTTTTCCTT, the switch fluorescence ratio was 1.03.
In the case of CTTTTTTGGC, the switch fluorescence ratio is reported as 1.08.
Sequence GAAAAAATAC has a switch fluorescence ratio of 1.64.
Work on GAAAAAATGA yielded a switch fluorescence ratio of 0.996.
GAAAAACTTG gave a switch fluorescence ratio of 1.01.
With GAAAAAGCTT the switch fluorescence ratio was 1.01.
In the case of GAAAAATGGG, the switch fluorescence ratio is reported as 1.03.

From the supplement of paper PMC10126150
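Note: ATP exposure 15 min at 22 °C before imaging.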
